Assay results as given in the supplement of paper PMC8728848.
This is one part of the list.

Experiments:
Assay in all cases: glycan array binding signal (z-score within array); higher = stronger binding
Conditions in all cases: glycan notation: IUPAC condensed, linker removed
[1] = molecular target: Gal(a1-3)Gal(b1-4)GlcNAc
Method in brief: (§1)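 Glycan array data came from 3228 arrays in the Consortium for Functional Glycomics database, and only arrays with an available protein sequence were kept. Glycan names were put into IUPAC-condensed notation, and columns mapping to the same glycan were averaged. The binding signal is a within-array Z-score, averaged across arrays of one protein sequence run at different concentrations or buffers and across linkers. A negative Z-score can be read as non-binding.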

[2] = molecular target: Gal(a1-3)Gal(b1-4)GlcNAc(b1-2)Man
Method in brief: as §1

[3] = molecular target: Gal(a1-3)Gal(b1-4)GlcNAc(b1-2)Man(a1-3)[Gal(a1-3)Gal(b1-4)GlcNAc(b1-2)Man(a1-6)]Man(b1-4)GlcNAc(b1-4)GlcNAc
Method in brief: as §1

[4] = molecular target: Gal(a1-3)Gal(b1-4)GlcNAc(b1-3)GalNAc
Method in brief: as §1

[5] = molecular target: Gal(a1-3)Gal(b1-4)GlcNAc(b1-6)GalNAc
Method in brief: as §1

[6] = molecular target: Gal(a1-3)Gal(b1-4)[Fuc(a1-3)]GlcNAc
Method in brief: as §1

[7] = molecular target: Gal(a1-3)Gal(b1-4)[Fuc(a1-3)]GlcNAc(b1-2)Man(a1-3)[Gal(a1-3)Gal(b1-4)[Fuc(a1-3)]GlcNAc(b1-2)Man(a1-6)]Man(b1-4)GlcNAc(b1-4)GlcNAc
Method in brief: as §1

[8] = molecular target: Gal(a1-3)GalNAc
Method in brief: as §1

[9] = molecular target: Gal(a1-3)[Gal(a1-4)]Gal(b1-4)GlcNAc
Method in brief: as §1

[10] = molecular target: Gal(a1-4)Gal(b1-3)GlcNAc(b1-2)Man(a1-3)[Gal(a1-4)Gal(b1-3)GlcNAc(b1-2)Man(a1-6)]Man(b1-4)GlcNAc(b1-4)GlcNAc
Method in brief: as §1

[11] = molecular target: Gal(a1-4)Gal(b1-4)Glc
Method in brief: as §1

[12] = molecular target: Gal(a1-4)Gal(b1-4)GlcNAc
Method in brief: as §1

[13] = molecular target: Gal(a1-4)Gal(b1-4)GlcNAc(b1-2)Man(a1-3)[Gal(a1-4)Gal(b1-4)GlcNAc(b1-2)Man(a1-6)]Man(b1-4)GlcNAc(b1-4)GlcNAc
Method in brief: as §1

[14] = molecular target: Gal(a1-4)Gal(b1-4)GlcNAc(b1-3)Gal(b1-4)Glc
Method in brief: as §1

[15] = molecular target: Gal(a1-4)GlcNAc
Method in brief: as §1

[16] = molecular target: Gal(a1-6)Glc
Method in brief: as §1

[17] = molecular target: Gal(b1-2)Gal
Method in brief: as §1

[18] = molecular target: Gal(b1-3)Gal
Method in brief: as §1

[19] = molecular target: Gal(b1-3)Gal(b1-4)GlcNAc
Method in brief: as §1

[20] = molecular target: Gal(b1-3)GalNAc
Method in brief: as §1

[21] = molecular target: Gal(b1-3)GalNAc(a1-3)[Fuc(a1-2)]Gal(b1-4)Glc
Method in brief: as §1

[22] = molecular target: Gal(b1-3)GalNAc(a1-3)[Fuc(a1-2)]Gal(b1-4)GlcNAc
Method in brief: as §1

[23] = molecular target: Gal(b1-3)GalNAc(b1-3)Gal
Method in brief: as §1

[24] = molecular target: Gal(b1-3)GalNAc(b1-3)Gal(a1-4)Gal(b1-4)Glc
Method in brief: as §1

[25] = molecular target: Gal(b1-3)GalNAc(b1-4)Gal(b1-4)Glc
Method in brief: as §1

[26] = molecular target: Gal(b1-3)GalNAc(b1-4)[Neu5Ac(a2-3)]Gal(b1-4)Glc
Method in brief: as §1

[27] = molecular target: Gal(b1-3)GlcNAc
Method in brief: as §1

[28] = molecular target: Gal(b1-3)GlcNAc(a1-3)Gal(b1-4)GlcNAc
Method in brief: as §1

[29] = molecular target: Gal(b1-3)GlcNAc(a1-6)Gal(b1-4)GlcNAc
Method in brief: as §1

[30] = molecular target: Gal(b1-3)GlcNAc(b1-2)Man
Method in brief: as §1

[31] = molecular target: Gal(b1-3)GlcNAc(b1-2)Man(a1-3)[Gal(b1-3)GlcNAc(b1-2)Man(a1-6)]Man(b1-4)GlcNAc(b1-4)GlcNAc
Method in brief: as §1

[32] = molecular target: Gal(b1-3)GlcNAc(b1-2)Man(a1-3)[Gal(b1-3)GlcNAc(b1-2)Man(a1-6)]Man(b1-4)GlcNAc(b1-4)[Fuc(a1-6)]GlcNAc
Method in brief: as §1

[33] = molecular target: Gal(b1-3)GlcNAc(b1-2)Man(a1-3)[GlcNAc(b1-4)][Gal(b1-3)GlcNAc(b1-2)Man(a1-6)]Man(b1-4)GlcNAc(b1-4)GlcNAc
Method in brief: as §1

[34] = molecular target: Gal(b1-3)GlcNAc(b1-2)[Gal(b1-3)GlcNAc(b1-6)]Man(a1-6)[Gal(b1-3)GlcNAc(b1-2)Man(a1-3)]Man(b1-4)GlcNAc(b1-4)GlcNAc
Method in brief: as §1

[35] = molecular target: Gal(b1-3)GlcNAc(b1-3)Gal(b1-3)GlcNAc
Method in brief: as §1

[36] = molecular target: Gal(b1-3)GlcNAc(b1-3)Gal(b1-4)Glc
Method in brief: as §1

[37] = molecular target: Gal(b1-3)GlcNAc(b1-3)Gal(b1-4)GlcNAc
Method in brief: as §1

B1: Epa23 (Candida glabrata) (protein)
chain: MGSSHHHHHHSSGLVPRGSHMIPNPFEGTINNFPSGCSPNHGLYNRGLTMELYNYSYIHPQSIQSYFNTSTLKKMEKGQCWDPSYLDVNYPRTGYKTHNRFAKVNGIDGILDFEFNPTRSCVPSKGQLPQNYNYPLQFTLSNFTMLLYGYFKPKVTAKHTFTIFADDLLFLNFGAGNAFDCCQQQDTIDDFGNYQAYALWGSDTQQNTLTVNLDANIYYPIRMFYNNRDFKGALNMYFTTDESNTKINDFSGYLFNIPDSSEGCPAHISYETECGNVSG
glycan array binding signal (z-score) [1]: -0.008
glycan array binding signal (z-score) [2]: -0.156
glycan array binding signal (z-score) [3]: -0.03
glycan array binding signal (z-score) [4]: -0.148
glycan array binding signal (z-score) [5]: 0.125
glycan array binding signal (z-score) [6]: -0.178
glycan array binding signal (z-score) [7]: -0.195
glycan array binding signal (z-score) [8]: -0.118
glycan array binding signal (z-score) [9]: -0.082
glycan array binding signal (z-score) [10]: -0.081
glycan array binding signal (z-score) [11]: -0.12
glycan array binding signal (z-score) [12]: -0.046
glycan array binding signal (z-score) [13]: 0.003
glycan array binding signal (z-score) [14]: -0.139
glycan array binding signal (z-score) [15]: 0.008
glycan array binding signal (z-score) [16]: -0.007
glycan array binding signal (z-score) [17]: -0.166
glycan array binding signal (z-score) [18]: 0.204
glycan array binding signal (z-score) [19]: 0.685
glycan array binding signal (z-score) [20]: 0.204
glycan array binding signal (z-score) [21]: 0.036
glycan array binding signal (z-score) [22]: -0.036
glycan array binding signal (z-score) [23]: 0.855
glycan array binding signal (z-score) [24]: 0.009
glycan array binding signal (z-score) [25]: 1.08
glycan array binding signal (z-score) [26]: 0.204
glycan array binding signal (z-score) [27]: -0.179
glycan array binding signal (z-score) [28]: -0.167
glycan array binding signal (z-score) [29]: -0.078
glycan array binding signal (z-score) [30]: -0.057
glycan array binding signal (z-score) [31]: -0.062
glycan array binding signal (z-score) [32]: -0.286
glycan array binding signal (z-score) [33]: -0.162
glycan array binding signal (z-score) [34]: -0.104
glycan array binding signal (z-score) [35]: -0.183
glycan array binding signal (z-score) [36]: -0.292
glycan array binding signal (z-score) [37]: -0.194
